Experiments:
[1] = system: SW-480 (colorectal cancer) cells; experiment: SW-480 colorectal cancer xenograft in nu/nu mice; assay type: in vivo, mouse; conditions: for Tumor Weight: average per group
Description: Mice (nu/nu) were implanted subcutaneously with 5×10^6 SW-480 (colorectal cancer) cells. After 12 days, when tumors reached approximately 100-200 mg, the mice were separated into 5 groups and treated with the following agents (or left untreated): • 1—Untreated • 2—Vehicle (PBS) • 3—Cisplatin (4 mg/kg/, IV, q2d×5 times) • 4—A2-SV (negative control antibody @ 10 mg/kg, IP, q2d×14 times) • 5—DX-2220 (anti-Tie-1 antibody @ 10 mg/kg, IP, q2d×14 times)
Throughout the study, the length (L) and width (W) of any tumors that developed were measured in millimeters using calibrated vernier calipers, where L is the longer of the two dimensions. When applicable, tumor weight (M) in milligrams was calculated by using the formula associated with a prolate ellipsoid: M=(L×W^2)/2. […] A2-SV is an isotype matched (IgG1) negative control antibody that binds strepavidin.

HUVEC = experiment: Tube formation assay with HUVEC in collagen gel; assay type: cell-based, human; conditions: collagen I gel; E3 active even at 10 ng/ml (tested 1 ng/ml to 10 μg/ml); E3b-IgG1 tested 1 pg/ml to 10 ng/ml
Description: Human Umbilical vein endothelial cells (HUVEC) were obtained by treating fresh human umbilical cord veins with Trypsin-EDTA (1×) (Gibco/Invitrogen) for 20-25 minutes at 37° C. The cells were cultured in a T-25 flask coated with attachment factor (AF), (Cascade Biologics) in RPMI 1640 medium supplemented with 10% FCS, 0.4% BBE, 1% 1-glutamin, 1% penicillin/streptomycin. Primary cultures were detached with warm Trypsin-EDTA and used when confluent at the second or third passage. The cells were maintained in a proliferative state by culturing them in a split ratio 1:2 at an approximate density of the monolayer of about 60-80%. […]
After 2 passages HUVECs were seeded in their culture medium (40.10^3/50 μl/well of a 96-well plate) on a collagen gel (50 μl of collagen I 1.5 mg/ml) prepared by mixing 7.5 volumes of 2 mg/ml collagen (Collagen R; Serva, Heidelberg, Germany), 1 volume of 10×MEM, 1.5 volume of NaHCO3 (15.6 mg/ml) and ˜1 volume of NaOH to adjust the pH to 7.4. […] The total length of the tube network on the culture surface was quantified at ×40 magnification by the METAVUE™ Software (Universal Imaging Corporation). Results from triplicate wells were expressed as mean vessel area per field ±SEM (relative units). […]
Germlined E3 and its parental antibody were evaluated in the tube formation assay in a collagen type-I matrix. […]

B1: DX-2220: full length, IgG1, germlined human anti-Tie1 antibody E3b; LC SEQ ID NO:700, HC SEQ ID NO:701 (antibody)
heavy: EVQLLESGGGLVQPGGSLRLSCAASGFTFSMYGMVWVRQAPGKGLEWVSVISPSGGNTGYADSVKGRFTISRDNSKNTLYLQMNSLRAEDTAVYYCARAPRGYSYGYYYWGQGTLVTVSS[left out - human IgG1 constant region]
light: DIQMTQSPSSLSASVGDRVTITCRASQGIGHYLAWYQQKPGKVPKLLIYTASTLQSGVPSRFSGSGSGTDFTLTISSLQPEDVATYYCQQFNSYPHTFGQGTRLEIKRTVAAPSVFIFPPSDEQLKSGTASVVCLLNNFYPREAKVQWKVDNALQSGNSQESVTEQDSKDSTYSLSSTLTLSKADYEKHKVYACEVTHQGLSSPVTKSFNRGEC
modifications: Antibody
In the case of B1, the “efficacy compared with cisplatin” value ([1]; DX-2220 10 mg/kg IP q2d×14, cisplatin 4 mg/kg IV q2d×5) is reported as “as efficacious as the chemotherapeutic control”, the “Tumor Weight” value ([1]; 5 days after cell injection (before treatment start at day 12)) is reported as 112 mg and the “Tumor Weight” value ([1]; 9 days after cell injection (before treatment start at day 12)) is reported as 137 mg. The “Tumor Weight” value ([1]; 12 days after cell injection (treatment start)) was 139 mg, the “Tumor Weight” value ([1]; 15 days after cell injection) was 145 mg and the “Tumor Weight” value ([1]; 19 days after cell injection) was 186 mg. The “Tumor Weight” value ([1]; 22 days after cell injection) was 224 mg, the “Tumor Weight” value ([1]; 26 days after cell injection) was 292 mg and the “Tumor Weight” value ([1]; 28 days after cell injection) was 328 mg. The “tube formation by HUVECs” value (HUVEC) was “inhibits tube formation”.

Reference: US7871610B2, “Antibodies to Tie1 ectodomain” (Dyax Corp., priority 2003, dated 2011)
